# According to PubChem BioAssay AID1460 (National Center for Advancing Translational Sciences (NCATS), 2008):
# Several values for one entry are separate records, joined by “and”; a condition that tells them apart may be missing. Equal values may be shown once. About 5,800 (2.1%) of roughly 270,000 compounds were called active. The shares of active, inactive and inconclusive entries below differ from those in the screen. Calls follow the shape of the dose curve; as a rule, active = well fitted inhibition curve with a large enough effect; inconclusive = small, poorly fitted or top-dose-only effect; inactive = flat fitted curve, though single readings scatter. Where the call is inconclusive, the potency comes from a doubtful curve fit.
# Molecular target: Microtubule-associated protein tau (Homo sapiens) (UniProt P10636)
# Assay: qHTS for Inhibitors of Tau Fibril Formation, Thioflavin T Binding; also: nearly all actives have a fitted effect of over 55% in size
# Details: recombinant tau K18 P301L, heparin-induced fibrillization, ThT fluorescence; series mostly up to 57.4 µM; activity, negative = inhibition: at the top concentration
# In short: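 ThT emission at 510 nm, taken 1 hr after adding 30 uM dye, quantifies aggregates formed when 20 uM heparin acts on human tau K18 P301L for 6 hr at 37 C.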
# % is scaled to controls: 0 for no effect and ±100 for the full control effect; potency is read from the fitted curve at half-maximal effect; tags tell the direction and shape of the fitted curve.
# Sequence of UniProt P10636 (P10636 whole entry, looked up): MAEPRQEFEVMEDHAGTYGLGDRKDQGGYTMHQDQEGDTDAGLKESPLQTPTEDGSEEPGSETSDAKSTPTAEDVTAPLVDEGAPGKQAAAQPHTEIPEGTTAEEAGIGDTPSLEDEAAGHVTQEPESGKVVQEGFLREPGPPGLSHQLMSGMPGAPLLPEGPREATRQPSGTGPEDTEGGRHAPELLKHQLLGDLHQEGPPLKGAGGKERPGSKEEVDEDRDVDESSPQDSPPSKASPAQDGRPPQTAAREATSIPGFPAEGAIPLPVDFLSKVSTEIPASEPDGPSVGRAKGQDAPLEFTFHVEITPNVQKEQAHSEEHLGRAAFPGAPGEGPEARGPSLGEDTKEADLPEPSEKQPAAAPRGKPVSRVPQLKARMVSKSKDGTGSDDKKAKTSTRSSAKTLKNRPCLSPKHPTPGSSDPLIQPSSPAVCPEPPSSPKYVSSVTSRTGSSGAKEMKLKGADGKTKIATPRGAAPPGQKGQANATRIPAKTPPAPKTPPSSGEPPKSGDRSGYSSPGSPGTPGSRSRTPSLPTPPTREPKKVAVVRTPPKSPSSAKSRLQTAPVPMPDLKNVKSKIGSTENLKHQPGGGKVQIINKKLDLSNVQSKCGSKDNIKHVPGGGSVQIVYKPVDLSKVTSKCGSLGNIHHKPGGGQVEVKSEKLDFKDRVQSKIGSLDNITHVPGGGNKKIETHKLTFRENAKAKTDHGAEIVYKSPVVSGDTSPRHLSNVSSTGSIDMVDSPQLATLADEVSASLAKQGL
Compound,"activity, negative = inhibition",Potency
Cc1cccc(C)c1NC(=O)CN(C)CC(=O)Nc1ccccc1Oc1ccccc1,inactive: -12.6%,
COC(=O)C/C=C/[C@@H](C)[C@H](OC)c1c(Br)ccc2c1OCO2,inactive: 3.26%,
CCc1ccc(-c2nc3cc(NC(=O)c4ccc(F)cc4)ccc3o2)cc1,,"inconclusive: 0.224 µM [inhibitor, full curve]"
CC1CC(=O)N(c2ccc(N(C)Cc3ccccc3)c([N+](=O)[O-])c2)C1=O (stereo not given),,"inconclusive: 25.1 µM [inhibitor, single point]"
Cc1ccc(CNC(=O)CCN2C(=O)C(C)Oc3ccc(C)cc32)cc1 (stereo not given),inactive: -13.9%,
O=C(CCC1N=C2c3ccccc3N=C(SCc3cccc(Cl)c3)N2C1=O)NCc1ccco1 (stereo not given),,"inconclusive: 31.6 µM [inhibitor, partial curve]"
O=C(CNC(=O)Cn1ccc2ccccc2c1=O)NCCCN1CCCCCC1,,"inconclusive: 25.1 µM [inhibitor, single point]"
O=C(CSc1nc2c(c(C(F)(F)F)n1)CCc1ccccc1-2)NCc1ccco1,,"inconclusive: 31.6 µM [inhibitor, partial curve]"
CN(C)c1ccc(NC(=O)/C=C/c2c(Cl)cccc2Cl)cc1,,"inconclusive: 2.82 µM [inhibitor, full curve]"
Cc1cccc(COc2ccc(-c3cc(C(F)(F)F)n4nc(C)cc4n3)cc2)c1,,"inconclusive: 3.55 µM [inhibitor, full curve]"
C=CCOc1ccc(/C=C2\SC(=S)N(CCC(=O)O)C2=O)cc1,,"inconclusive: 3.98 µM [inhibitor, partial curve]"
Cc1cc(/C=C2\NC(=O)N(Cc3ccc(Cl)cc3)C2=O)c(C)n1C,,"inconclusive: 28.2 µM [inhibitor, partial curve, poor fit]"
NNCCc1ccccc1,,"inconclusive: 17.8 µM [inhibitor, partial curve] and inconclusive: 14.1 µM [inhibitor, partial curve, poor fit]"
COc1ccc(OC)c(S(=O)(=O)NCCc2sc(C)nc2C)c1,inactive: -2.66%,
C/C(=N\OCc1nc2ccccc2c(=O)n1/N=C/c1cc(C)cc([N+](=O)[O-])c1O)c1ccccc1,,active: 3.98 µM
CC1CCc2c(sc3nnn(CC(=O)Nc4ccccc4Cl)c(=O)c23)C1 (stereo not given),inactive: -6.12%,
Fc1ccc(NCc2nc3ccccc3n2CCOc2ccccc2Cl)cc1,,"inconclusive: 0.0251 µM [inhibitor, full curve, poor fit]"
COc1ccc(NC(=O)N2CCC(n3c(C)nc4cccnc43)CC2)cc1OC,inactive: -11.7%,
CCOC(=O)C1=C(CN(CC)Cc2ccccc2)NC(=O)NC1c1ccc(Cl)cc1 (stereo not given),,"inconclusive: 8.91 µM [inhibitor, partial curve, poor fit]"
CC1=NN(c2ccccc2)C(=O)C1N=Nc1ccc(N)cc1 (stereo not given),,active: 11.2 µM
CC1(C)OC(c2ccccc2)=C/C(=C/C=Nc2ccccc2)O1,,"inconclusive: 15.8 µM [inhibitor, partial curve]"
CCOC(=O)c1cnn(-c2cccc(Cl)c2)c1C1CCN(C(=O)OC(C)(C)C)CC1,inactive: -16.9%,
Cc1ccc(OCCSc2nc3ccc(NC(=O)COc4ccc(C)cc4)cc3s2)cc1,,"inconclusive: 1.26 µM [inhibitor, full curve]"

Compound,"activity, negative = inhibition",Potency
COc1ccc(N2C(=O)C3CCCCC3C2=O)cc1NC(=O)c1ccccc1 (stereo not given),inactive: -11.3%,
CC1CCN(C(=O)c2ccc(CSc3nc4ccncc4n3Cc3ccc(F)cc3)cc2)CC1,inactive: -13.4%,
O=C(N/N=C/c1ccccc1F)c1ccc(COc2ccccc2Cl)o1,,"inconclusive: 15.8 µM [inhibitor, partial curve]"
Cc1ccc(S(=O)(=O)/N=C2/NC(=O)/C(=C\c3ccco3)S2)cc1,inactive: -10.5%,
CCNC(=O)CC1SC(=Nc2cccc(Cl)c2C)N(C)C1=O (stereo not given),inactive: -14.5%,
Cc1cccc(-n2c3nc(=O)n(C)c(=O)c-3cc3c(C)nn(-c4ccccc4)c32)c1C,inactive: -8.58%,
CC(C)(C)n1nnnc1C(c1ccc2ncccc2c1)N1CCSCC1 (stereo not given),,"inconclusive: 44.7 µM [inhibitor, single point]"
CSc1ncc2c(n1)-c1ccccc1N(Cc1ccccc1C)S2(=O)=O,inactive: 10.7%,
Cc1cc(C)c2nc(NNC(=O)c3ccc(S(=O)(=O)N4CC(C)CC(C)C4)cc3)sc2c1 (stereo not given),,"inconclusive: 22.4 µM [inhibitor, partial curve]"
CCOC(=O)CCN1C(=O)[C@H]2[C@H]3[C@H](O)[C@H](O)C/C(=N/OCc4ccccc4)[C@H]3CC[C@@H]2C1=O,,"inconclusive: 1.58 µM [inhibitor, single point]"
COCc1c(C#N)c(NCCc2ccc(F)cc2)nc(C)c1[N+](=O)[O-],,"inconclusive: 39.8 µM [inhibitor, single point]"
COc1ccccc1NC(=O)C(=N\O)/C(C)=N/O,inactive: -2.39%,
CCOc1ccccc1-n1nnnc1SCC(=O)NCc1ccco1,inactive: 6.09%,
CCOC(=O)c1sc2nc(C)c([N+](=O)[O-])c(COC)c2c1N,,"inconclusive: 5.01 µM [inhibitor, partial curve]"
CCCCOC(=O)CCNc1n[nH]c(=O)[nH]c1=O,inactive: -2.71%,
COc1ccc(C2Nc3ccccc3C(=O)N2c2ccc(C)cc2)cc1Cn1nc(C)c([N+](=O)[O-])c1C (stereo not given),,"inconclusive: 8.91 µM [activator, partial curve]"
Cc1cccc(N=C2NN=C(c3c(C)[nH]c4ccccc34)CS2)c1,inactive: -0.443%,
O=C(Cn1ccn(-c2ccc(F)c(F)c2)c(=O)c1=O)NCc1ccccc1,,"inconclusive: 6.31 µM [inhibitor, partial curve]"
CCOc1ccc(-c2c(C)nn3c(C)c(C(=O)NC(C)c4ccccc4)cnc23)cc1OCC (stereo not given),,"inconclusive: 17.8 µM [inhibitor, partial curve]"
COc1ccc(CC(=O)Nc2cc3oc4ccccc4c3cc2OC)cc1,,"inconclusive: 15.8 µM [inhibitor, partial curve]"
CC1Cc2ccccc2N1c1ncnc(N)c1[N+](=O)[O-] (stereo not given),,"inconclusive: 28.2 µM [inhibitor, single point]"
Oc1ccc(NC(=S)Nc2ccc(O)cc2)cc1,,active: 10 µM
